Reference: PubChem BioAssay AID1468 (National Center for Advancing Translational Sciences (NCATS), 2008)
Among all 280,000 compounds or so, about 1,100 (0.39%) were called active. Inconclusive results, whose numbers are uncertain, are shown with a selection of clear calls. The call rests on the fitted dose curve; in most records, active means well fitted inhibition curve with a large enough effect; inconclusive means small, poorly fitted or top-dose-only effect, or effect the other way; inactive means flat fitted curve, though single readings scatter. Potencies of inconclusive entries are left out as doubtful fits.

Target: Microtubule-associated protein tau (Homo sapiens) (UniProt P10636)
UniProt P10636, sequence (P10636 whole entry, looked up): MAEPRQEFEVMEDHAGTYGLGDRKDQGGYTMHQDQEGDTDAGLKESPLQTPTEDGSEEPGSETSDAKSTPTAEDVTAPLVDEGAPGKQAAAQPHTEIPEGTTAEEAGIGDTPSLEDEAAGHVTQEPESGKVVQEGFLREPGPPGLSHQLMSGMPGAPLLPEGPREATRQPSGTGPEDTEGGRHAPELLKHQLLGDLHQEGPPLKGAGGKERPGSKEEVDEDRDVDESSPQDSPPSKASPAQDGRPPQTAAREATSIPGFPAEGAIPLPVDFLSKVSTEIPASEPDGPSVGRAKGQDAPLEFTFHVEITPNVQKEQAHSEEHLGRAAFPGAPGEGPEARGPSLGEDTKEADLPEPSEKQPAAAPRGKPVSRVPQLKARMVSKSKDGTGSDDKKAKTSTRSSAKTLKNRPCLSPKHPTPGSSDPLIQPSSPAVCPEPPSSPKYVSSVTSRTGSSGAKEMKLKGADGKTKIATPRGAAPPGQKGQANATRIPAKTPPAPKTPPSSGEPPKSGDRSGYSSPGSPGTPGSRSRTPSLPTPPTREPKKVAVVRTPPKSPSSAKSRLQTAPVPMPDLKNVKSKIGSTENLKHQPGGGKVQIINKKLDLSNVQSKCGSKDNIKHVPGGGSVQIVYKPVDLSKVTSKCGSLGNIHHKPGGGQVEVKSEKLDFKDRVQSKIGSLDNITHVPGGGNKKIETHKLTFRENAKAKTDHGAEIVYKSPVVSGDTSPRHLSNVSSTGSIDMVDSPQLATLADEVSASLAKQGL
Assay: qHTS for Inhibitors of Tau Fibril Formation, Fluorescence Polarization; further: nearly all actives have a fitted effect of over 55% in size
Conditions: K18 P301L tau heparin fibrillization, Alexa594 FP, 6 h; series mostly up to 57.7 µM; activity, negative = inhibition: at the top concentration
How it was run: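 Human K18 P301L fragment (15 uM unlabeled plus 0.24 uM Alexa 594-labeled) in 100 mM sodium acetate pH 7 with compound, aggregation induced by 20 uM heparin for 6 hr at 37 C. ThT (30 uM) added for 1 hr, then Alexa 594 FP read.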
On the % scale 0 is the no-effect control and ±100 the full control effect; potency means the concentration at half of the fitted maximal effect; tags describe the fitted curve by direction and shape.

SMILES | Potency | activity, negative = inhibition
CCOC(=O)c1sc(NC(=O)C2c3ccccc3Oc3ccccc32)c(C#N)c1C | inconclusive [inhibitor, partial curve] | 
N#C/C(=N/Nc1ccc(OC(F)(F)F)cc1)C(N)=S |  | inactive: 3.92%
CCOC(=O)c1cc(-c2ccc(OC)cc2)n(CCC(=O)NCc2ccc(OC)cc2)c1C |  | inactive: 14.9%
Cc1ccc(C)c(NC(=O)CN(C)S(=O)(=O)c2ccc3c(c2)CCC(=O)N3)c1 |  | inactive: -9.5%
CCOC(=O)c1cccc(NC(=O)/C=C/c2ccc3c(c2)OCO3)c1 | inconclusive [inhibitor, partial curve] | 
CCOC(=O)N1CCN(C(=O)COc2cc(C)c(Cl)c(C)c2)CC1 |  | inactive: -2.85%
C/C(Cc1ccccc1)=N\NC(=O)CNC(=O)COc1cccc(C)c1 | inconclusive [inhibitor, single point] | 
CC(=O)OC[C@@H]1O[C@@H](O/N=C2/C[C@@H](O)[C@@H](O)[C@@H]3[C@@H]4C(=O)N(C(C)(C)C)C(=O)[C@H]4CC[C@H]23)[C@H](OC(C)=O)[C@H](OC(C)=O)[C@@H]1OC(C)=O | inconclusive [inhibitor, single point] | 
CC(=O)N1CCN(c2ccc(NCc3ccc(C)s3)cc2)CC1 | inconclusive [inhibitor, single point] | 
c1ccc(Nc2ccnc(Nc3ccccc3)n2)cc1 | inconclusive [inhibitor, single point] | 
Cc1cc(N(CCO)CCO)nc(-n2nc(C)cc2C)n1 |  | inactive: 3.29%
Cc1cc(C)nc(SCC(=O)Nc2ccc(N3CCOCC3)cc2)n1 |  | inactive: 1.43%
CC=CC1=C(C(=O)O)N2C(=O)[C@H](NC(=O)[C@H](N)c3ccc(O)cc3)[C@@H]2SC1 | inconclusive [inhibitor, partial curve, poor fit] | 
S=c1[nH]nc(COc2ccccc2)n1C1CCCCC1 |  | inactive: 4.19%
Cn1c(=O)oc2cc(S(=O)(=O)N3CCCC(C(=O)NC4CCCc5ccccc54)C3)ccc21 (stereo not given) |  | inactive: 4.69%
O=C(Nc1ccc([N+](=O)[O-])cc1)Nc1ccc2c(c1)OCCO2 | inconclusive [activator, partial curve] | 
Cc1ccc(NC(=O)Cn2c(=O)n(Cc3nc(C)no3)c(=O)c3ccccc32)c(Cl)c1 |  | inactive: 2.97%
CCCN(c1ccc(OCC)cc1)c1ncnc2nc[nH]c12 |  | inactive: 3.01%
Cc1cccc(C)c1OCCCn1c(CCNC(=O)C2CCCCC2)nc2ccccc21 |  | inactive: -3.99%
Cc1c(C(=O)Nc2cccc(Cl)c2)sc2nc3n(c(=O)c12)N=C(c1cccc(Br)c1)CS3 | inconclusive [inhibitor, single point] | 
O=C(Sc1ccccc1)c1cccc(Cn2cc(C(F)(F)F)ccc2=O)c1 | inconclusive [activator, partial curve] | 
COc1ccc(NC(=O)C2CC(=O)N/C(=N/N=C/c3ccco3)S2)cc1 (stereo not given) | inconclusive [inhibitor, single point] | 
Cc1c(C(=O)N(C)C2CCCCC2)sc2nc3ccc(N)cc3n12 | inconclusive [inhibitor, partial curve] | 
Cc1nn(-c2ccccc2)nc1C(=O)Nc1ccc2[nH]ncc2c1 | inconclusive [inhibitor, partial curve] | 

SMILES | Potency | activity, negative = inhibition
O=C(COc1ccc([N+](=O)[O-])cc1)Nc1ccc(C(=O)NCc2cccnc2)cc1 | inconclusive [inhibitor, partial curve] | 
COc1ccc2[nH]c3c(C)c4ccncc4c(C)c3c2c1 |  | inactive: -8.21%
Cc1cc(C(=O)NCc2cccs2)c(C)o1 | inconclusive [inhibitor, single point] | 
COc1cccc(NC(=O)CN(C)C(C)C(=O)Nc2ccc(S(=O)(=O)N3CCCC3)cc2)c1 (stereo not given) | inconclusive [inhibitor, full curve] | 
O=c1c2ccccc2sn1-c1cc(S(=O)(=O)N2CCOCC2)ccc1N1CCOCC1 | inconclusive [inhibitor, single point] | 
COc1ccccc1NC(=O)c1oc2ccccc2c1NC(=O)c1cccc(OC)c1OC | inconclusive [inhibitor, partial curve] | 
O=C1S/C(=C\c2ccccc2)C(=O)N1CC(O)Cn1c2ccccc2c2ccccc21 (stereo not given) |  | inactive: -1.9%
CC1(C)Cc2c(c(-c3ccco3)nc3sc4c(NCCO)ncnc4c23)CO1 |  | inactive: -1.25%
O=C(/C=C/c1ccccc1)c1ccccc1 |  | inactive: 16%
Cc1ccc(-c2csc3nc4c5ccccc5c(NCCCN(C)C)nn4c(=O)c23)cc1 | inconclusive [inhibitor, single point] | 
O=C(O)c1cc(NN=C2CCN(Cc3ccccc3)CC2)ccc1Cl | inconclusive [inhibitor, single point] | 
CCCCOc1ccc(C(=O)Nc2ccc(SC(F)F)cc2)cc1OC | inconclusive [inhibitor, partial curve] | 
NS(=O)(=O)c1ccc(NC(=O)COC(=O)c2ccc(Cl)cc2[N+](=O)[O-])cc1 |  | inactive: -7.5%
Cc1ccc2onc(CC(=O)N3CCN(c4cc(Cl)ccc4C)CC3)c2c1 | inconclusive [inhibitor, single point] | 
O=C1C(Cl)=C(NC2CCc3ccccc32)C(=O)c2ncccc21 (stereo not given) | inconclusive [inhibitor, partial curve] | 
CCOC(=O)c1ccc(Nc2nnc(C(C)(C)C)c(=O)[nH]2)cc1 | inconclusive [inhibitor, single point] | 
CC(C)(C)NC(=O)/C=C/c1cccc(C(F)(F)F)c1 |  | inactive: 1.39%
COc1cc(C2c3c(-c4ccccc4)n[nH]c3C(=O)N2c2ccc(C(=O)O)cc2)ccc1O (stereo not given) | inconclusive [inhibitor, single point] | 
Cc1ccc(NC(=O)Nc2cccc([N+](=O)[O-])c2)cc1F | inconclusive [inhibitor, partial curve] | 
CC1SC(c2cccc(Cl)c2)NC1=O (stereo not given) |  | inactive: -7.44%
Cc1c(Cc2ccc3c(c2)OCO3)sc(NC(=O)c2ccccc2)c1C(N)=O | inconclusive [inhibitor, partial curve] | 
O=C(COc1ccc(F)cc1)Nc1ccc(S(=O)(=O)N(Cc2ccccc2)c2ccccc2)cc1 | inconclusive [inhibitor, partial curve] | 
CCOC(=O)C1CCN(Cc2ccc(OC)cc2OC)CC1 |  | inactive: -2.31%
COc1ccc(-c2cc(C(C)=O)c(C)n2CCC(=O)Nc2ccc(C)c(Cl)c2)cc1 |  | inactive: -3.65%

SMILES | Potency | activity, negative = inhibition
O=c1c2ccccc2sn1-c1nccs1 | inconclusive [inhibitor, partial curve] | 
O=C(CNc1ccc(Br)cc1)c1ccc(O)cc1 |  | inactive: 6.74%
CN(CC(=O)Nc1ccc(N2CCOCC2)cc1)C(=O)CC(c1ccccc1)c1ccccc1 | inconclusive [activator, full curve, poor fit] | 
O=C(/C=C/Nc1cccc(F)c1)c1ccco1 |  | inactive: -5.19%
Cc1[nH]n(-c2ccccc2)c(=O)c1N=Nc1ccccc1C(=O)N1CCCCC1 | inconclusive [inhibitor, single point] | 
COc1ccc(NC(C)C(=O)N/N=C/c2ccccc2OCc2ccc(Br)cc2)cc1 (stereo not given) | inconclusive [activator, full curve, poor fit] | 
O=C(NC(=S)NC(=O)c1ccccc1F)c1ccccc1F | inconclusive [inhibitor, partial curve, poor fit] | 
C/C(CCC1CC(C)OC1=O)=N/Nc1nc(-c2ccccc2)cs1 (stereo not given) | inconclusive [inhibitor, single point] | 
C=CCOC(=O)C1=C(C)N=c2s/c(=C3\C(=O)N(CC(=O)O)c4ccccc43)c(=O)n2C1c1ccc(OC)cc1 (stereo not given) | inconclusive [inhibitor, partial curve] | 
Cc1ccc(Cl)cc1NC(=O)c1cc(CN2CCCC2)on1 |  | inactive: -4.08%
CCC1CCCCN1C(=O)CSc1nc2ccsc2c(=O)n1Cc1ccccc1 (stereo not given) |  | inactive: 7.32%
O=S(=O)(Nc1cc2nc3ccccc3nc2n1Cc1ccccc1)c1ccc(Cl)cc1 | inconclusive [inhibitor, partial curve, poor fit] | 
COc1ccc(-c2cc(C(F)(F)F)nc(SCCC(=O)Nc3cccc(OC)c3)n2)cc1 | inconclusive [inhibitor, partial curve] | 
O=C1/C(=C/c2ccc(O)c(O)c2)Oc2cc(O)ccc21 |  | inactive: 3.87%
CCC1C(=O)N=C(SCC(=O)Nc2nc3ccccc3s2)NC1=O (stereo not given) | inconclusive [inhibitor, single point] | 
CCc1ccc(NC(=O)c2ccc(NS(=O)(=O)c3c(C)noc3C)cc2)cc1 | inconclusive [inhibitor, partial curve, poor fit] | 
Nc1cc([N+](=O)[O-])ccc1Nc1ccccc1 | inconclusive [activator, full curve] | 
COc1ccc2cc(C(=O)Nc3ccc(Cl)cc3)sc(=O)c2c1OC | inconclusive [inhibitor, partial curve] | 
CCn1nnnc1SCC(=O)NNC(=O)C1CCCCC1 |  | inactive: 1.56%
C=CCSC1=N/C(=C\C=C\c2ccco2)C(=O)S1 | inconclusive [inhibitor, single point] | 
Cc1ccc(CNc2ncccc2-c2nc(-c3ccc(Cl)cc3)no2)cc1 | inconclusive [inhibitor, single point] | 
N#Cc1ccc(NC(=O)Nc2ccc(Cl)cc2)cc1 | inconclusive [inhibitor, partial curve] | 
